Assay results from PubChem BioAssay AID488969 (Vanderbilt High Throughput Screening Facility, 2010).
The full ranking holds about 110,000 compounds; the median of “z-score” is about -0.1, and the highest 2% start at about 2. This is one part of the list. Activity calls are given as the source filed them.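 The calls were made as follows: active = z-score in the third read window above 3 or below -3; inactive = the rest.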

Biological target: Metabotropic glutamate receptor 8 (Rattus norvegicus) (UniProt P70579)
Assay: rat mGluR8 modulators via GIRK flux, primary screen, cell-based, thallium flux, HTS (AID 488969)
Settings: HEK293 rat mGluR8, GIRK (G protein-gated inwardly rectifying potassium channel) thallium flux, FluoZin2; at 10 µM; stronger effect = higher value; submaximal glutamate (EC20) added with thallium

Chain of UniProt P70579 (P70579 whole entry, looked up): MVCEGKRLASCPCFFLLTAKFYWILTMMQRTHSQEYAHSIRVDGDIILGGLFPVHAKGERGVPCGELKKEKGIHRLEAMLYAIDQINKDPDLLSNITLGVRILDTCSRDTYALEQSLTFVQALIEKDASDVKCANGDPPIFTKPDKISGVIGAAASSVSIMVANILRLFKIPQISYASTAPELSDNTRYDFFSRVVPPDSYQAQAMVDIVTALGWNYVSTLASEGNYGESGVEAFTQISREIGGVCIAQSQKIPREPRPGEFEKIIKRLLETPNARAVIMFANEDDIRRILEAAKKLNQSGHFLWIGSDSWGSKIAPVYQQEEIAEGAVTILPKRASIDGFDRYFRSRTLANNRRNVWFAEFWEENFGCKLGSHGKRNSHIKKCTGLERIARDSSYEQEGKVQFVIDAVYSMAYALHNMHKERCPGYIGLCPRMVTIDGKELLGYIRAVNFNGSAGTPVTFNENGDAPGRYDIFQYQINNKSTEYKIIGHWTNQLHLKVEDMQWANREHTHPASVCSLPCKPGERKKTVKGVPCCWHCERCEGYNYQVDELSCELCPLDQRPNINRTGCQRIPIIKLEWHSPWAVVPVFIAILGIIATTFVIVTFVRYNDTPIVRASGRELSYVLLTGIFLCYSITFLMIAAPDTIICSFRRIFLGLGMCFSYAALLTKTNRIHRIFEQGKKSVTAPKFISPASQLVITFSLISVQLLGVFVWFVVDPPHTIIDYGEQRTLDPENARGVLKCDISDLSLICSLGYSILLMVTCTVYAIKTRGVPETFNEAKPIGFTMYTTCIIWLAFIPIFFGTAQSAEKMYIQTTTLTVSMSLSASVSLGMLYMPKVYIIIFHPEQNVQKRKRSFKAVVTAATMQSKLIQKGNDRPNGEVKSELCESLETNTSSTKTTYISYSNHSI

| Compound | z-score |
| --- | --- |
| CCN(CC(=O)Nc1ccc(NC(C)=O)cc1)C(=O)/C=C/c1cccs1 | 0.279 |
| COc1ccc(CC(=O)NCc2nnc(SCC(=O)N3CCN(c4ccccc4)CC3)n2C)cc1 | -0.627 |
| CCc1ccc(Nc2cc(=O)n(C3CCCCC3)c(=O)[nH]2)cc1 | -0.0576 |
| CCOc1cccc(N(C(=O)Cc2cccs2)C(C(=O)NC2CCCCC2)c2cccn2C)c1 (configuration not stated) | -0.0721 |
| CCOc1cc(/C=N/NC(=O)COc2nc(C)cc(COC)c2C#N)ccc1O | 0.692 |
| CC(C)(C)NC(=O)NC(=O)COC(=O)c1cccc(NS(=O)(=O)c2ccc(F)c(F)c2)c1 | -0.352 |
| O=C(N/N=C\c1ccc([N+](=O)[O-])s1)c1cncc(Br)c1 | -0.156 |
| COc1ccc(OC)c(S(=O)(=O)NCC2CCCO2)c1 (configuration not stated) | 0.058 |
| O=C(CNC(=O)c1ccco1)NCCCc1ccccc1 | -0.149 |
| Cc1nc(N2CCN(C)CC2)c2c(C)c(C(=O)Nc3ccc(F)cc3)sc2n1 | -0.367 |
| Cn1c(=O)c2c(nc(N/N=C/c3ccc(OC(=O)c4ccco4)cc3)n2Cc2ccccc2)n(C)c1=O | 0.162 |
| CCOC(=O)CN1C(=O)S/C(=C/c2ccc(OC)c([N+](=O)[O-])c2)C1=O | 0.0987 |
| CN1C(=S)NC(C)(C)CC1(C)c1ccc(O)cc1O (configuration not stated) | -0.144 |
| COc1ccc(C(=O)NCCc2nnc(SCc3nc4ccccc4c(=O)[nH]3)n2C)cc1 | -0.361 |
| Cc1ccc(P(=O)(CSC(=N)N)c2ccc(C)cc2)cc1 | 0.125 |
| Oc1c(CN2CCc3ccccc3C2)cc(Cl)c2cccnc12 | 2.72 |
| CC(=O)Nc1ccc(NC(=O)C(C)OC(=O)c2ccccc2Sc2ccccc2C#N)cc1 (configuration not stated) | 0.414 |
| C=CCn1c(NC(=O)CC)c(C(=O)OCC)sc1=S | -0.979 |
| CCOc1ccc(NS(=O)(=O)c2ccc(NC(=S)NC(=O)C(C)C)cc2)cc1 | -0.0271 |
| Cc1nc2nc(-c3ccccc3)nn2c(C)c1Cl | 0.197 |
| COc1ccc2c(c1OC)C(=O)OC2Nc1ncccc1C (configuration not stated) | -0.218 |
| Cn1c(CN2CCCC2)nc2cc(NC(=O)C3CCCCC3)ccc21 | -0.205 |

| Compound | z-score |
| --- | --- |
| CCC(/C=N/Nc1ccc(S(=O)(=O)N2CCCC2)cc1[N+](=O)[O-])CC | -0.217 |
| COc1ccc(C2C3=C(CCCC3=O)Nc3nc(SCc4ccccc4)nn32)cc1OC (configuration not stated) | 0.474 |
| CC1Cc2ccccc2N1C(=O)COc1nc2ccccc2nc1N1CCOCC1 (configuration not stated) | -0.126 |
| CN(C)c1ccc(NC(=O)COC(=O)CCC(=O)c2ccc(F)cc2)cc1 | 0.474 |
| Cc1nn2c(nc(N3CCOCC3)c3ccccc32)c1C=C(C#N)C#N | -0.113 |
| O=C(COc1ccccc1O)Nc1ccccc1Cl | 0.702 |
| NC(=O)CC(c1ccccc1)c1ccco1 (configuration not stated) | -0.579 |
| CC(Sc1nc(NCc2ccccc2)nc(N2CCOCC2)n1)C(=O)Nc1ccccc1 (configuration not stated) | -1.09 |
| Cc1nn(-c2ccccn2)c2c1C(c1ccccc1Cl)C1=C(N2)c2ccccc2C1=O (configuration not stated) | -0.893 |
| COc1ccc(-c2c3c(=O)n(C)c(=O)n(C)c3cn2Cc2cccnc2)cc1 | -0.122 |
| C/C(=N\NC(=O)CN(c1ccccc1)S(=O)(=O)c1ccccc1[N+](=O)[O-])C(C)(C)C | -0.941 |
| O=c1c2c(ncn2C2CCCC2)n(Cc2ccccc2)c(=O)n1CCOc1ccc(Br)cc1 | -0.222 |
| C/C=C/c1ccc(OCCCCN2C(=O)NC(C)(C)C2=O)c(OC)c1 | -0.579 |
| O=C(Nc1ccc(S(=O)(=O)NCc2ccccc2)cc1)c1ccc(Br)o1 | 0.32 |
| COc1ccc(CCC(=O)N2CCN(S(=O)(=O)c3ccc4ccccc4c3)CC2)cc1 | -0.528 |
| CC(=O)C1=C(O)C(=O)N(Cc2cccnc2)C1c1ccc(Cl)cc1Cl (configuration not stated) | -0.364 |
| CC(O)CNCc1ccc(-c2ccccc2)cc1 (configuration not stated) | 0.106 |
| Cc1onc(-c2c(Cl)cccc2Cl)c1C(=O)NCc1ccco1 | 0.0309 |
| Cc1ccccc1Cn1nc(C)c(NC(=O)c2nc3n(n2)C(C(F)F)CC(C)N3)c1C (configuration not stated) | -0.0871 |
| O=C1c2ccccc2C(=O)N1n1c(=O)[nH]c2ccccc2c1=O | 0.165 |
| O=C(CN1C(=O)CSC1=O)Nc1ccc(N2CCOCC2)cc1 | -0.877 |
| CCOC(=O)N1CCN(c2nnnn2-c2ccccc2)CC1 | -0.14 |

| Compound | z-score |
| --- | --- |
| CCOC(=O)c1c(-c2ccccc2)csc1NC(=O)c1nn(CC)cc1Br | -0.101 |
| CCC(C)N(C(=O)COC(=O)c1[nH]c(C)c(C(C)=O)c1C)C1CCS(=O)(=O)C1 (configuration not stated) | 0.473 |
| NS(=O)(=O)c1ccc(CCNC(=O)c2ccccc2F)cc1 | 0.657 |
| O=C(CCCn1c(=O)[nH]c2ccsc2c1=O)N1CCN(c2ccccn2)CC1 | 0.703 |
| Cc1ccc(/C=N/NC(=O)c2cc3c(ccc4ccccc43)o2)cc1[N+](=O)[O-] | -0.185 |
| Cc1c(C(=O)Nc2ccc3c4c(cccc24)CC3)cccc1[N+](=O)[O-] | -0.136 |
| Cn1ccnc1SCC(=O)NC1CCCCC1 | 1.1 |
| Cc1ccc(C(=O)Nc2ccc(C(=O)N/N=C/c3c[nH]c4ccccc34)cc2)cc1 | 0.219 |
| Cc1nc2c(-c3ccc(F)cc3)c(C)nn2c(C)c1CCC(=O)NCc1ccco1 | -1.1 |
| Cc1cccc(-n2ncc3c(NCCCO)ncnc32)c1 | 0.607 |
| C/C(=N\O)C1(C)N(O)C(C)(C)C(c2ccco2)=[N+]1[O-] (configuration not stated) | -0.295 |
| Cn1c(CSc2nnc(SCc3ccccc3)s2)nc2ccccc21 | 0.343 |
| Fc1ccc(NC(=S)NC2CCCCC2)c(F)c1F | -0.0971 |
| COc1ccccc1NC(=S)N(Cc1ccco1)Cc1cc2cc(C)cc(C)c2[nH]c1=O | -0.117 |
| CCOC(=O)/C(=C\C=C1/Sc2cc(OCC)c(OCC)cc2N1CC)C(C)=O | -0.787 |
| CC(O)(CS(=O)(=O)Cc1ccc(Cl)cc1)C(=O)Nc1cccc(C(F)(F)F)c1 (configuration not stated) | -0.155 |
| CC(=O)Nc1nnc(-c2ccccn2)o1 | -0.00401 |
| COc1ccc(S(=O)(=O)N2CCN(c3ccccc3OC)CC2)cc1OC | -0.112 |
| CCCC1c2ccc(C)n2CCN1C(=O)Nc1ccc(F)cc1 (configuration not stated) | -0.175 |
| Clc1ccc(Cl)c(Oc2ccc(Oc3nc(Cl)ccc3Cl)cc2)n1 | -0.176 |
| Cc1[nH]c2ccc(-c3n[nH]c(=S)n3-c3ccccc3)cc2c1C | -0.523 |
| CCCCOc1ccccc1C1C(C(=O)OC)=C(C)N(C)C(C)=C1C(=O)OC | active: -4.64 |

| Compound | z-score |
| --- | --- |
| COC(=O)c1ccccc1NC(=O)C1CCN(C(=O)c2ccc(OC)cc2)CC1 | -0.394 |
| Cc1cc(C(F)F)n2nc(C(=O)Nc3ccccc3F)nc2n1 | 1.37 |
| COc1ccccc1CNS(=O)(=O)c1ccc(NC(C)=O)cc1 | -0.177 |
| COc1ccccc1NNC(=O)C(O)(c1ccccc1OC)c1ccccc1OC | 0.0746 |
| Cc1cccc(N2CCN(C(=O)Cc3ccc(-n4c(=O)[nH]c5ccsc5c4=O)cc3)CC2)c1C | -0.128 |
| O=S(=O)(c1ccc(Cl)cc1)N1CCC(N2CCCCCC2)CC1 | 0.613 |
| CCOC(=O)c1c(-c2ccccc2)csc1NC(=O)c1ccc(S(=O)(=O)N2CC(C)OC(C)C2)cc1 (configuration not stated) | -1.62 |
| COc1ccc(OCC(=O)NNC(=O)c2ccc(-c3ccccc3)cc2)cc1 | 0.411 |
| Cc1cc(-c2ccccc2)nc(SCc2ccc(C(=O)O)o2)n1 | -0.597 |
| COc1ccc2nc(Nc3nc(C)c(CCC(C)C)c(=O)[nH]3)nc(C)c2c1 | -0.996 |
| CC1(C)CC(C(CC(=O)O)c2ccccc2)CCO1 (configuration not stated) | 0.185 |
| CC(C)Cc1nnc(NC(=O)CCC(=O)N2CCN(S(=O)(=O)c3ccccc3)CC2)s1 | -0.555 |
| COC(=O)CN1C(=O)CC(C)(C)S(=O)c2ccccc21 (configuration not stated) | -0.197 |
| CC1CC(C)CN(S(=O)(=O)c2ccc(C(=O)NCc3ccc4c(c3)OCO4)cc2)C1 (configuration not stated) | -0.0539 |
| CC(C)Cc1cc(C(=O)Nc2sc3c(c2C#N)CCC3)no1 | 1.32 |
| CCc1ccc(C(=O)NC(CC(C)C)C(=O)O)cc1 (configuration not stated) | -0.493 |
| COc1ccc(Br)cc1CN1CCCCCCC1 | 0.169 |
| CN(C)c1cccc(NC2=CC(=[N+]3CCOCC3)CC(C)(C)C2)c1 | 0.942 |
| O=C(C1CCCCC1)N1CCCC(c2nc3c(nnn3Cc3ccccc3)c(=O)[nH]2)C1 (configuration not stated) | 2.1 |
| COc1ccc(C2C(C(N)=O)=C(C)Nc3nc(-c4cccc(Cl)c4)nn32)cc1OC (configuration not stated) | active: 4.01 |
| O=C(c1cccc(NS(=O)(=O)c2ccc(F)c(F)c2)c1)N1CCN(C(c2ccccc2)c2ccccc2)CC1 | -0.189 |
| Cc1ccc(-n2nc3c(Cl)nnc(C)c3c2C)cc1 | 0.701 |

| Compound | z-score |
| --- | --- |
| C=CCNC(=O)C(=O)NCCOc1ccccc1Cl | -0.268 |
| Cc1cc([N+](=O)[O-])nn1Cc1c(F)c(F)c(F)c(F)c1F | -0.232 |
| COc1nc(Nc2cccc(C)c2)nc(N2CCCCC2)n1 | -0.961 |
| COC(=O)c1cc2nc(-c3ccccc3)cc(C)n2n1 | 0.0407 |
| CCOC(=O)C1C(=O)C=C(c2ccc(C)cc2)CC1c1ccco1 (configuration not stated) | -0.0925 |
| Cc1ccc(C)c(N2CCN(C(c3ccc(N(C)C)cc3)c3nnnn3C(C)(C)C)CC2)c1 (configuration not stated) | -0.156 |
| CCS(=O)(=O)Nc1cccc(C(=O)CC2(O)C(=O)Nc3ccccc32)c1 (configuration not stated) | -0.0365 |
| Cc1cc(C)n(CC(=O)N/N=C/c2ccc3c(c2)OCO3)n1 | -0.0715 |
| COc1ccc(N=c2cc(-c3ccc(O)cc3)oc3ccccc23)cc1 | -0.0858 |
| CCO/C(=C/c1sc2ccc(OC)cc2[n+]1CCCS(=O)(=O)[O-])CC | 0.262 |
| O=C(/C=C/c1ccc(OCCCF)cc1)NCc1cccc(Cl)c1 | -0.208 |
| Cc1cc(C)n2nc(SCC(=O)N(C)c3ccccc3)nc2n1 | -0.461 |
| CSc1cccc(NC(=O)Nc2ccc(Cl)cc2)c1 | -0.269 |
| CC1CCCCN1S(=O)(=O)c1ccc2c(c1)CCN2C(=O)C1CCC1 (configuration not stated) | -0.121 |
| COc1ccc(C(=O)/C=C/Nc2c(C)n(C)n(-c3ccccc3)c2=O)cc1OC | -0.0686 |
| CCOC(=O)c1[nH]c2ccc(OC)cc2c1NC(=O)CN1CCc2ccccc2C1 | -0.535 |
| CCOC(=O)c1ccc(CNCc2ccccc2)cc1 | -0.07 |
| CSc1nc2ccc(NC(=O)C3CCCO3)cc2s1 (configuration not stated) | 0.644 |
| CCOC(=O)CNc1nc(C#N)nc(N2CCOCC2)n1 | -1.08 |
